# ± gives the standard deviation. Whole data set: some 5,500 sequences, median “pre-steady-state target cleavage rate” near 0.1, cut for the highest 2% near 0.64. The list shows a part of the results, in another mix than the full data.
# Tested on: MIWI (PIWIL1) piRISC loaded with piRNA #2 (30 nt)
# Assay: pre-steady-state target cleavage rate (min^-1); MIWI and MILI are mouse PIWI proteins and EfPiwi is from a freshwater sponge; tags in brackets are library labels; higher = faster piRNA-guided slicing of the target
# Details: guide: piRNA #2 5'p-UUAGGUAACCCAGUAGAUCCAGAGGAAUUC; auxiliary factor: 500 nM mouse GTSF1
# Procedure, shortened: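 Cleave-'n-Seq measured uncleaved targets by sequencing after a transcribed, DNA-blocked target RNA library […] was mixed with 1 nM active affinity-purified piRISC holding one synthetic guide, with or without 500 nM GTSF1 partner protein, at 33 °C in HEPES–potassium acetate buffer for 0–8 or 0–960 min. Counts were normalised to depth and to weakly complementary targets, three trials were pooled, and k3 was capped at 0.0001 min^-1. A burst-and-steady-state fit gave the pre-steady-state cleavage rate.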
row,Sequence,pre-steady-state target cleavage rate
1,CUUAAGGAGACCUACUACUGGGUUACAUAA,0.0136 ± 0.0046
2,GAAUUCCACUGGAUCUACUGGGAUACCUAA,0.343 ± 0.066
3,CUUAACCUCUGGAGUCUACUGGGUUACCUAA,0.22 ± 0.028
4,GUAUUCCUCUGGAUCUACUGGCUUACCUAA,0.0508 ± 0.014
5,GUAUUCCUCUGGAUCUACUGGGUUACCUUA,0.0945 ± 0.041
6,CUUUUCCUCUGGAUCUACUGGCUUACCAAA,0.08 ± 0.02
7,CUUAACCUCUGGAUCUUCAGGGUUACCUAA,0.112 ± 0.014
8,CAAUUCCUCUGGAUCUACUGCGAUACCUAA,0.235 ± 0.045
9,GAAUUCCUCUGGAUCUACUGCGUUACCUAA,0.469 ± 0.056
10,CAAUUCCUCUGGAUCUAGUGGGUUACCUUA,0.138 ± 0.026
11,CUUAAGGAGACGAUCUACAGCGUUACCUAA,0.0051 ± 0.0033
12,CUAUUCCUCUGCUUCUACUGGGUUACCUAA,0.516 ± 0.04
13,CUUAUGCUCUGGAUCAACUGGGUUACCUAA,0.102 ± 0.011
14,CUUAAGCUCUGGAACUACUGGGUAACCUAA,0.044 ± 0.011
15,GAAUUCCUCUGCAUCUAGUGGGUUACCUAA,0.199 ± 0.02
16,CUUAAGCUGUGGAUCUAGUGGGUUACCUAA,0.0784 ± 0.017
17,GAAUUCCUCUGCAUCUACUGGGUAACCUAA,0.21 ± 0.032
18,CUUAACCUCAGGUUCUACUGGGUUACCUAA,0.448 ± 0.05
19,CAAUUCCUCUCGAUCUACUGGCUUACCUAA,0.203 ± 0.02
20,CAAUUCCUCUGGAUCUACUGGUUUACCUAA,0.285 ± 0.032
21,CUUUUCCUCUGGAUCUACUGGCUUAGCUAA,0.00565 ± 0.004
22,CUUAACCUCUGGAAUCUACUGGGUUACCUAA,0.281 ± 0.032
23,CUUAAGGUCUGCAUCUACUGGGUUACGUAA,0.279 ± 0.031
24,CUAUUCAUCUGGAUCUACUGGGUUACCUAA,0.498 ± 0.047

row,Sequence,pre-steady-state target cleavage rate
1,CAAUUCCUGACGAUCUACUGGGUUACCUAA,0.212 ± 0.034
2,CUAUUCCUCUGGCUCUACUGGGUUACCUAA,0.612 ± 0.042
3,CUAUCCUCUGGAUCUACUGGGUUACCUAA,0.383 ± 0.059
4,CUUAUCGUCAGGAUCUACUGGGUUACCUAA,0.134 ± 0.035
5,CUUAAGCUCAGGAUCUACUGGGUUACCAAA,0.167 ± 0.028
6,GAAUUCCUCUGGAUCAUACUGGGUUACCUAA,0.0105 ± 0.0044
7,CUUUUCCUCUGGAUGAACUGGGUUACCUAA,0.28 ± 0.049
8,CUAUUGGACUGGAUCUACUGGGUUACCUAA,0.22 ± 0.081
9,CUUAAGGUCAGGAUCUACUGCGUUACCUAA,0.0372 ± 0.013
10,CUUAACCUCUCGAUCUACUGGGUUACCAAA,0.323 ± 0.033
11,CUAUGCCUCUGGAUCUACUGGGUUACCUAA,0.275 ± 0.037
12,CUUAAGGAGUGGAUCCACUGGGUUACCUAA,0.0904 ± 0.015
13,CUUUUCCUAUGGAUCUACUGGGUUACCUAA,0.566 ± 0.048
14,CUUUUGCCUCUGGAUCUACUGGGUUACCUAA,0.274 ± 0.039
15,CUUAAGCUCUGGAUCUACUGGGAAUCCUAA,0.0233 ± 0.0084
16,CUAUUGCUCUGGAUCAACUGGGUUACCUAA,0.118 ± 0.018
17,CUUAAGCUCUGGAUCUACUGGGUUACUAA,0.0907 ± 0.012
18,CUUAACCUCUGGAACUACUCGGUUACCUAA,0.0861 ± 0.0088
19,CUAUUCCUCUGGAUCAAGUGGGUUACCUAA,0.00774 ± 0.0026
20,CAAUUGGUCUGGAUCUACUGGGUUACCUAA,0.355 ± 0.039
21,CAAUUCCUCUGGAUCUUCUGGGUUACGUAA,0.397 ± 0.061
22,CUUAUCCUCUGGAUCUACUGGGUUAGCCUAA,0.445 ± 0.054
23,CUUAAGCUCUGGAUCUACUGGGUUUGGAUA [g7:g24:cont:t1A],0.0255 ± 0.01
24,CUUAAGCUCUGGAUCUACUCGGUUUCCUAA,0.0101 ± 0.0055

row,Sequence,pre-steady-state target cleavage rate
1,CUUAUCCUCAGGAUCUACUGGCUUACCUAA,0.0719 ± 0.019
2,GAAUUCCACUGGAUCUACUGGGUUACCAAA,0.542 ± 0.065
3,CUUAAGGAGAGGAUCUACUGUGUUACCUAA,0.205 ± 0.046
4,CUUAACCUCUGGAUCUACAGGGUUACCUUA,0.149 ± 0.018
5,CAAUUCCUCUGCAUCUACUGGGUUACGUAA,0.426 ± 0.043
6,CUUAAGGUCUGCAUGUACUGGGUUACCUAA,0.0864 ± 0.041
7,CUUAUCCUCUGGAUCUACUGGGUUACCUAU [g2:g26:cont:t1U],0.339 ± 0.051
8,GAAUUCCUCUGGAUCAACUGGGAUACCUAA,0.171 ± 0.032
9,CAAUUCCUCUGGAUCUGCUGGGUUACCUAA,0.641 ± 0.08
10,GAAUUCCUCUGGAUCUUCUGGGUUACCUAA,0.274 ± 0.047
11,CUUUUCCUCUGGAUCUACUGGGUUUACCUAA,0.46 ± 0.048
12,CAAUUCCUCUGGAUCAACUGGGUUACCUAA,0.446 ± 0.049
13,CUUAAGGAGAGGAUCUACUGGGUUACCGAA,0.00743 ± 0.0071
14,CUUAAGGUGUGGAACUACUGGGUUACCUAA,0.0339 ± 0.025
15,CAAUUCCUCUGGGAUCUACUGGGUUACCUAA,0.582 ± 0.05
16,CUUAAGGAGUGGAUCUACUGGGUUUACCUAA,0.0473 ± 0.013
17,GAAAUUCCUCUGGAUCUACUGGGUUACCUAA,0.283 ± 0.053
18,CAAUUGCUCAGGAUCUACUGGGUUACCUAA,0.574 ± 0.044
19,CUUAAGGAGACCUAGAUCUGGCGUUACCUAA,0.00657 ± 0.0014
20,CUUAUCCUCUGGAUCUACUGGGUUACCUGAA,0.549 ± 0.18
21,CUUAAGGUCUGGAUGUACUGGGUUACGUAA,0.246 ± 0.07
22,CAAUUCCUCUGCAACUACUGGGUUACCUAA,0.518 ± 0.048
23,CUUUUCCUCUGGAUCUACUGGGUUACCAA,0.448 ± 0.061
24,CUUUUCCUGUGGUUCUACUGGGUUACCUAA,0.208 ± 0.017

# Source: the supplement of paper PMC10338343
